Here are results for three molecules from PMC12847741.

Protein sequences, listed by entry. Tags and fused reporters are not part of them.
UniProt P05556: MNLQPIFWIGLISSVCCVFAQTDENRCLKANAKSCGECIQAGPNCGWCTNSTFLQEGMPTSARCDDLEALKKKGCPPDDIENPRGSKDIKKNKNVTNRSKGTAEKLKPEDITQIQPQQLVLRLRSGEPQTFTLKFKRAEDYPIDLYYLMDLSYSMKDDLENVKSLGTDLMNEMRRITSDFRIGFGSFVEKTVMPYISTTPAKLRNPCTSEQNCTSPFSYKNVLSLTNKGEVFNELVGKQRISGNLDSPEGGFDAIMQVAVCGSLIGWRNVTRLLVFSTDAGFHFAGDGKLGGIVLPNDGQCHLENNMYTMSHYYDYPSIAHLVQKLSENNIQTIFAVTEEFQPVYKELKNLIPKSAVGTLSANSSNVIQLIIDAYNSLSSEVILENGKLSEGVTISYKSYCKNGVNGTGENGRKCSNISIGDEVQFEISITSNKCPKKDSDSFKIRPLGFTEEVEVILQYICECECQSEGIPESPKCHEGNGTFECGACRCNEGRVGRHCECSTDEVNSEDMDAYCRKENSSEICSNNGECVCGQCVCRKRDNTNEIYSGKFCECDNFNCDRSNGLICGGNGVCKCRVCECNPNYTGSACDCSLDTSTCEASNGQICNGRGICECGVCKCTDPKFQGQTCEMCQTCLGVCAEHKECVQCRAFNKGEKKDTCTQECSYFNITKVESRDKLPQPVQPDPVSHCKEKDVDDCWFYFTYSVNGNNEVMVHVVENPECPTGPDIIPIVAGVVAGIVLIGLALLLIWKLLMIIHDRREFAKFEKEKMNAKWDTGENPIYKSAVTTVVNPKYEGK
UniProt Q9Y490: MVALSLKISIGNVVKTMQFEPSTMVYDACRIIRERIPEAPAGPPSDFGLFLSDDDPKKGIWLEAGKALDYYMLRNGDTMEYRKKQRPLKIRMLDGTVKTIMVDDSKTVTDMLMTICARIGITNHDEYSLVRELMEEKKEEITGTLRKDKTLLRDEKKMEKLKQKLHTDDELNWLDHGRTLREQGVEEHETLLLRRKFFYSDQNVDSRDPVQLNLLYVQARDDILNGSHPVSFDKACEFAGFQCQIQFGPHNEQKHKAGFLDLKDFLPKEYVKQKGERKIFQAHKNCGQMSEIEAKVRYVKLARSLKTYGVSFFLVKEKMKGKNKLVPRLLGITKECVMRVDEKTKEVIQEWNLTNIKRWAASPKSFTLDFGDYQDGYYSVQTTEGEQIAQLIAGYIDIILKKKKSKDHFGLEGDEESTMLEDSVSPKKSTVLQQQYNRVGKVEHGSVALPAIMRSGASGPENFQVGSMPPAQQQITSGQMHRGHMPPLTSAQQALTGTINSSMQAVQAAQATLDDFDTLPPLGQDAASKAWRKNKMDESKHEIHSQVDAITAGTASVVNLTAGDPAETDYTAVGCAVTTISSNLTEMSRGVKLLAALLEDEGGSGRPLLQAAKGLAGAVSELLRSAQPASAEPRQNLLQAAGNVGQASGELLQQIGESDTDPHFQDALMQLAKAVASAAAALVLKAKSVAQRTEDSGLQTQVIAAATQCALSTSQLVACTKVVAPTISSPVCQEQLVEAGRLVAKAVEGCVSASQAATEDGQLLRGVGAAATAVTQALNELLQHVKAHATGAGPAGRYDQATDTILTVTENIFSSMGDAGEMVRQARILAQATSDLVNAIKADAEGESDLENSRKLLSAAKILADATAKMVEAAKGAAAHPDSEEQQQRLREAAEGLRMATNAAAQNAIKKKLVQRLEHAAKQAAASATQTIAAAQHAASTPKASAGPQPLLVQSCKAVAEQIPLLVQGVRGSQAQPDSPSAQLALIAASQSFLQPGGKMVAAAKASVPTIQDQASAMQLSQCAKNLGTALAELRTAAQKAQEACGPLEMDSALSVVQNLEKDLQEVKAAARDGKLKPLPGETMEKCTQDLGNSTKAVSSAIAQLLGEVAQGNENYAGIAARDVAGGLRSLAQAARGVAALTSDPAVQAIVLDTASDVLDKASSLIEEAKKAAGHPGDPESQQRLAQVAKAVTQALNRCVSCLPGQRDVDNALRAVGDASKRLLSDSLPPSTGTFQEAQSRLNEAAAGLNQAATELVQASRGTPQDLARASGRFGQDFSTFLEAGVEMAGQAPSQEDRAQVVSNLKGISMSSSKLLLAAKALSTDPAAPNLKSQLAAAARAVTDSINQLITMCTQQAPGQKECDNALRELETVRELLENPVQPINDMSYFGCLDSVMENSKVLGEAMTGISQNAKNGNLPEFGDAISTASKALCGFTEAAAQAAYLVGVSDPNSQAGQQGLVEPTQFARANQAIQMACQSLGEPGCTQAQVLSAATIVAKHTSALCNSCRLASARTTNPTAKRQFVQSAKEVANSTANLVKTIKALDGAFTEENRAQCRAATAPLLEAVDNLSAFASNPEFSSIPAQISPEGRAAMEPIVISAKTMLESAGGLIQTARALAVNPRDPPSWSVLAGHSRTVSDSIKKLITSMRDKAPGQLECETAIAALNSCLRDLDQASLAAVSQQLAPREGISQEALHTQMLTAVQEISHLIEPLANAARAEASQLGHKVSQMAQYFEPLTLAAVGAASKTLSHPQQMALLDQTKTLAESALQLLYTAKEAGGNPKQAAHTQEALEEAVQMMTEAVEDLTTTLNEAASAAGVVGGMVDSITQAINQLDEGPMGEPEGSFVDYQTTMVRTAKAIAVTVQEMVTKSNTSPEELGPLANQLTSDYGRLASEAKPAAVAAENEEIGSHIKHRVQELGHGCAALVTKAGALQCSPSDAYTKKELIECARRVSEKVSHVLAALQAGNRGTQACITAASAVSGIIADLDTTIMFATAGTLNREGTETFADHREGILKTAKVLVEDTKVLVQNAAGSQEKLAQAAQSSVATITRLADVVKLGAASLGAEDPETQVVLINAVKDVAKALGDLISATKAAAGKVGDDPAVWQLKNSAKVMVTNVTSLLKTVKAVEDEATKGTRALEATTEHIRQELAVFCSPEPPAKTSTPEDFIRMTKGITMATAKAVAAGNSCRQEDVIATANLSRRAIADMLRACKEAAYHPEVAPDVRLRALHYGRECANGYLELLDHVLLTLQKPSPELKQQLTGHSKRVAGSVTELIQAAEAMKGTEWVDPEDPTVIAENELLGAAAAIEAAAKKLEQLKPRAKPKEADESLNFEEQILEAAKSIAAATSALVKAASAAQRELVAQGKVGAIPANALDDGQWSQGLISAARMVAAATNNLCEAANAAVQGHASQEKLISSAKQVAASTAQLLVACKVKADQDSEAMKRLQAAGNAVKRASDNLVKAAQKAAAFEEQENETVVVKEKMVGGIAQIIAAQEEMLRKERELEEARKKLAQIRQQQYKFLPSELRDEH

For test [1], the target named is Integrin β1, endogenous (human (endogenous in ESCC cells)) (UniProt P05556). In words: co-IP; endogenous proteins from ESCC cells transfected with IFIT3^Flag or Vector plasmid, or shRNA IFIT3 or shRNA-NC plasmid; also KYSE410^shLASP1 cells with IFIT3 and LASP1 overexpressed.
For test [2], the target named is T1, Flag-tagged IFIT3 (interferon-induced protein with tetratricopeptide repeats 3), full-length (human) (UniProt O14879).
T1 sequence: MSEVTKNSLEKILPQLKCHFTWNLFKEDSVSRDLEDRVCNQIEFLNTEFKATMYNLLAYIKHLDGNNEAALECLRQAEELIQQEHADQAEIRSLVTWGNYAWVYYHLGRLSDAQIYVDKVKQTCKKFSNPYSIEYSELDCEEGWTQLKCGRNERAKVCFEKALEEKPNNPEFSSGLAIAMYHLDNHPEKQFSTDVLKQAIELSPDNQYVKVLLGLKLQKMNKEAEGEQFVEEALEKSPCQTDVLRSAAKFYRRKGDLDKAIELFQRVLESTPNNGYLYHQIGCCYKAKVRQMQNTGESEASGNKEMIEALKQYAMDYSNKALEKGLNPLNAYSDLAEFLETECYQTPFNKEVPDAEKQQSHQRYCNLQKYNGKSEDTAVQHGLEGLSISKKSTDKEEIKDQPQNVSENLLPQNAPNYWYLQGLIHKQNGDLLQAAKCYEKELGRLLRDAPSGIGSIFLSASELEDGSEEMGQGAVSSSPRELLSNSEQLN
In words: co-IP; IP and immunoblot of exogenous IFIT3 (KYSE410) or endogenous IFIT3 (KYSE150) and endogenous LASP1 from cell extracts; IgG as negative control. For orientation: In western blotting, separated proteins are transferred to a membrane and probed.

Test [3] has as its target T2, IFIT3, endogenous (human (endogenous in KYSE150)) (UniProt O14879).
T2 sequence: T1 sequence
Described as above.

The target of test [4] is Talin1, endogenous (human (endogenous in ESCC cells)) (UniProt Q9Y490). In words: co-IP; endogenous proteins from ESCC cells transfected with IFIT3^Flag or Vector plasmid, or shRNA IFIT3 or shRNA-NC plasmid; also KYSE410^shLASP1 cells with IFIT3 and LASP1 overexpressed.
For test [5], the target named is T1, Flag-tagged IFIT3 (interferon-induced protein with tetratricopeptide repeats 3), full-length (human). In words: co-IP; 293T (HEK293T) cells transfected with IFIT3-Flag and LASP1-HA plasmids.
In test [6] the target is T3, Flag-tagged C-terminal IFIT3 (ΔN, 281-490 aa) (human) (UniProt O14879).
T3 sequence: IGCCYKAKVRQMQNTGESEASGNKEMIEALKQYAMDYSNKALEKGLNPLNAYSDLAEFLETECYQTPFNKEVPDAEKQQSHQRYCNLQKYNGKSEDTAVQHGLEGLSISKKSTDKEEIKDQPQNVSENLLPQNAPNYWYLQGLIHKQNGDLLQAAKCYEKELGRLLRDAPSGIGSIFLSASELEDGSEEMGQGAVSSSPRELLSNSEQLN
In words: co-IP; HA-tagged LASP1 with Flag-tagged IFIT3 or its deletion mutants; anti-HA or anti-Flag immunoprecipitation, anti-FLAG/HA immunoblots; cells not given.

For test [7], the target named is T4, Flag-tagged N-terminal IFIT3 (ΔC, 1-280 aa) (human) (UniProt O14879).
T4 sequence: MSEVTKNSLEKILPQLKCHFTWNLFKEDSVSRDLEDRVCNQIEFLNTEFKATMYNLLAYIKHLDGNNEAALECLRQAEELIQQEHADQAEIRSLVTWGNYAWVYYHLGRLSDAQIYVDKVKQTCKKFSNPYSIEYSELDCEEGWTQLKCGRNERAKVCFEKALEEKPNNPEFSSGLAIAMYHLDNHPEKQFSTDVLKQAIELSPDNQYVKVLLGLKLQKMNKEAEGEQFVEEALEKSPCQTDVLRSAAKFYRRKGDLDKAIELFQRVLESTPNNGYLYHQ
The description is as above.

No constants are given. Whether binding was seen depends on the method and setting. Binding seen in cells or lysates may run through a third protein. Some entries that bind do so weakly or less than the wild type. For some of these results: Tags and fused reporters may be left off the sequences shown.

Turning to “Talin1, endogenous (from UniProt Q9Y490 1-2541)”, the binding entry in test [1] was “binds”.

B1: LIM and SH3 protein 1 (LASP1), endogenous (protein, UniProt Q14847 1-261)
chain: MNPNCARCGKIVYPTEKVNCLDKFWHKACFHCETCKMTLNMKNYKGYEKKPYCNAHYPKQSFTMVADTPENLRLKQQSELQSQVRYKEEFEKNKGKGFSVVADTPELQRIKKTQDQISNIKYHEEFEKSRMGPSGGEGMEPERRDSQDGSSYRRPLEQQQPHHIPTSAPVYQQPQQQPVAQSYGGYKEPAAPVSIQRSAPGGGGKRYRAVYDYSAADEDEVSFQDGDTIVNVQQIDDGWMYGTVERTGDTGMLPANYVEAI
On to B1, for which the binding result in test [2], in test [3] and in test [4] was “binds” in each case.

B2: HA-tagged LASP1 (protein, UniProt Q14847 1-261)
chain: B1 chain
Take B2: the binding result is reported as “binds” in test [5], “no binding” in test [6] and “binds” in test [7].
